Drawing on the RNAGym collection of RNA variant scans (doi:10.7554/elife.90254), this text covers self-cleavage for 56 variants.

Read counts are not given, so values of variants with three or more changes are uncertain.

The labels stand for the following.
B1: LINE1-mini (parent)
chain: GGCAGAGCUCAACACAGCGUGGCAAAGUGGCUGUGGCUAGACUGCC

This data set covers variants of B1. Nature of the data set: self-cleavage, relative activity (ratio to wild type); higher = more cleavage; in vitro, sequencing; the parent is a self-cleaving ribozyme.
With GGAAGACCUCAGCACAGCGUGGCAAAGUGGCUGUGGAUAGACUGCC [C3A G7C A12G C37A], the self-cleavage came to 0.13. To GGAAGAGCUCAACACAGCGUGGCAAAUUGGGUGUGGCUGGACUGCC [C3A G27U C31G A39G] belongs 0.06. To GGAAGAGCUCAACACACCGUGGCAAAGUGGCUGUGGCUAGGCUGCC [C3A G17C A41G] belongs 0.14; to GGAAGAGCUCAACACAGGGUGGCAAAGUGGCUGUGGCUAGCCUGCC [C3A C18G A41C], 0.1; to GGAAGAACUCAACAGAGCGUGGCAAAGUGGCUGUGGCUAGACUUCG [C3A G7A C15G G44U C46G], 0.54. The same measure for GGAAGAGCUCAACACAGCGUUGUAAAGUGUCUGUGGCUAGACUGCC [C3A G21U C23U G30U]: 0.43; for GGAAGAGCUCAACACAGCCUGGCCAAGUGGCUGUGGCUACACUGCC [C3A G19C A24C G40C]: 0.08. Consider GGAAGAGCUCAACACAGCGUGGACAAGUAGCUGUGGCUAGACUGCC [C3A C23A A24C G29A], for which the self-cleavage was 0.3. On to GGAAGAGCUCAACACAUCGUGUCAAAGUGGCUGUGGCUAGACUGCC [C3A G17U G22U], for which the self-cleavage came to 0.07.

Regarding GGAAGAGCUCAACACAACGUGGCAAAGUGGAUGUGGCUAGACUGCC [C3A G17A C31A], the self-cleavage was found to be 0.2. Turning to GGAACAGCUAAACACAGCGUGGCAAAGUGGCUGUGGCUAGACUUCC [C3A G5C C10A G44U], the self-cleavage came to 0.01.

As to GGAACAGCUCAACUCAGCGCGGCAAAGUGGCUGUGGCUAGACUGCC [C3A G5C A14U U20C], the self-cleavage came to 0.09. As for GGAAGAUCUCAACACAGCGUGGCACAGUGGCAGUGGCUAGACUACC [C3A G7U A25C U32A G44A], the self-cleavage was found to be 0.11. To GGAAAAGCUCAACACAGGGUAGCAAAGUGGCUGUGGCUAGACUUCC [C3A G5A C18G G21A G44U] belongs 0.04; to GGAAGAGCUCAACAAAGCGUGGCAUAGUGGCUGUGGCUAGACUGCC [C3A C15A A25U], 0.11; to GGAAGAGCUCAACACAGCGUGGGAAAGCGGCUGUGGCUGGACUGCC [C3A C23G U28C A39G], 0.04.

GGAAGAGCUCAACACAACCUGGCAAAGUGGCUGUGGCUAGACUGCC [C3A G17A G19C]: the self-cleavage was 0.09. For the variant GGAAGAGCUCAACACAGCAUGGCAACGUGACUGUGGCUAGACUGCC [C3A G19A A26C G30A], the self-cleavage was 0.63. On to GGAAAAGCUCAACACAGCGUGGCAAAGUGGCUGUGGCUAAAUUGCC [C3A G5A G40A C42U], for which the self-cleavage came out at 0.17. To GGAAGAGCUCAACACAGCGUGGCAAAGUGGAUGUGGCUGGACUGCC [C3A C31A A39G] belongs 0.1. Take GGAAAUGCUCAGCACAGCGUGGCAAAGUGGCUGUGGCUAGACUGCC [C3A G5A A6U A12G]: the self-cleavage was determined as 0.15. In the case of GGAAUAGCUCACCACAUCGUGGAAAAGUGGAUGUGGCUAGACUACC [C3A G5U A12C G17U C23A C31A G44A], the self-cleavage came out at 0.02. To GGAAGAGCUCAACACAGCGUAGCAAAGAGGCUGUGGCUAGAAUGCC [C3A G21A U28A C42A] belongs 0.06. To GGAAGAGCUCAAGACAGAGUGGCUAACUGGCUUUGGCUAGACUGCC [C3A C13G C18A A24U G27C G33U] belongs 0.04. Consider GGAAGAGCUCAACACAGCGUGACAAUGUGGCUGUGCCCAGACUGCC [C3A G22A A26U G36C U38C], for which the self-cleavage was 0.38. For the variant GGAAGAGCUCAACAUAGCGUGGCAAAGUGGCUGUGGCUAGACUGUC [C3A C15U C45U], the self-cleavage came to 0.88. To GGAACAGCUCAACACAGCGUGGCCAAGUGGCAGUGGCCAGACUGCC [C3A G5C A24C U32A U38C] belongs 0.52.

In the case of GGAAGAGCUCAACACAACGUGGCUAAGUGGCUGUGGCUCGACUGCC [C3A G17A A24U A39C], the self-cleavage came to 0.07. Turning to GGAAGAGCUCAACAGCGCGUGGCAAAGUGGCUGUGGCUAGACGGCC [C3A C15G A16C U43G], the self-cleavage was determined as 0.01.

Turning to GGAAGAGCUCAACACAGCCUGGCAAAGUGGCUGUGGCUUGACUGCC [C3A G19C A39U], the self-cleavage was 0.04. GGAAGAGCUCAACAGAGCGUGGCAAAGUGGCAGUCGCUAUACUGCC [C3A C15G U32A G35C G40U]: the self-cleavage was 0.15.

With GGAAUUGCUCAACACAGCGUGACAAAGUGGCUAUGGCUAGACUGCC [C3A G5U A6U G22A G33A], the self-cleavage turned out to be 0.24. The same measure for GGAAGAUCUCAACACAGCGUGGCAAAGUGGCUGUGGCUAGACUGUU [C3A G7U C45U C46U]: 0.13; for GGAACAGCACAACACAGCGUGGCAAAGUGGAUGUGGCUCGACUGCC [C3A G5C U9A C31A A39C]: 0.

Consider GGAAGAGCUCAACACACCCUGGCAAAGUGGCUGUGGCUAGACUGCC [C3A G17C G19C], for which the self-cleavage turned out to be 0.21. The same measure for GGAAGAGCUCAACACAACGUGGCAAAGUGGCUGUGGCUAGAUUGCC [C3A G17A C42U]: 0.06. In the case of GGAAGAGCUCAACACAACGUGGCAAAGUGGCUGUGGCUAGAAUGCC [C3A G17A C42A], the self-cleavage is 0.11. Turning to GGAAGAGCUCAACACAACGUGGCAAAGUGGCUCUGGCUAGAAUGCU [C3A G17A G33C C42A C46U], the self-cleavage is 0.05. The same measure for GGAAGAGCUCAACACAGCGUGGAAAAGUGGCAAUGGCUAGACUGCC [C3A C23A U32A G33A]: 0.14; for GGAAGAGCUCAACACACCGUGGCAAAGUGGCUGUGGCUAGACUGCA [C3A G17C C46A]: 0.34. For the variant GGAAGAGCUCAAGACAGCGUGUCAACGUGGCUGUGGCUAGACUGCC [C3A C13G G22U A26C], the self-cleavage amounted to 1.11.

GGAAGAGCUCAACACAGCAUGGCAAAGUGGCUGUGGUAAGACUGCC [C3A G19A C37U U38A]: the self-cleavage was 0.32. The same measure for GGAAGAGCUCAACAGAUCGUGGCAAAGUGGCUGUGGCUAGACUACU [C3A C15G G17U G44A C46U]: 0.04; for GGAAGAACUGAACACAGCGUGGCAGAGUGGCUCUGGCGAGAGUGCC [C3A G7A C10G A25G G33C U38G C42G]: 0.01; for GGAACAGCUCAGCACAGAGUGGCUAAGUGGCUGCGGCUAAAAUGCC [C3A G5C A12G C18A A24U U34C G40A C42A]: 0.13.

As to GGAACAGCUCAACACAGCGUGCCAAAGUGGCUGUGGCUAGACUGCC [C3A G5C G22C], the self-cleavage is 0.05. To GGAAGAGCUCAACACAGCGUGGUACAGUGGCUGUGGCUAGACUGAC [C3A C23U A25C C45A] belongs 0.05. Regarding GGAAGAGCUCAACAUAGCGGGGCAAAGUGGCUGUGACUAGACUGCC [C3A C15U U20G G36A], the self-cleavage is 0.37. Consider GGAAAAGCUCUACACAGCGUGGCAAAGUGGCUGUGGAUAGACUGCC [C3A G5A A11U C37A], for which the self-cleavage worked out at 0.03.

Consider GGAACAGCUCAACACAGCGUGGCAAAGAGGGUGUGGCUAGACUGCC [C3A G5C U28A C31G], for which the self-cleavage came out at 0.13. With GGAAGAGCUCAACACAGCGUAGCAAAGUGGCUGUGGCAAGACUGCC [C3A G21A U38A], the self-cleavage is 1.35. With GGAAGAGCUCAACACAGCGUGGGAUAGUGGCUGUAGCUAGACUGCC [C3A C23G A25U G35A], the self-cleavage was 0.18. For GGAAAAGUUCAAAACAGCGUGGCGAAGUGGCUGUGGCUAGACUUUC [C3A G5A C8U C13A A24G G44U C45U], the self-cleavage is 0.35. To GGAAAAGCUCAACAGAGCGUGGCAAAGUGGCUGUGGCUAGACUGCC [C3A G5A C15G] belongs 0.07; to GGAAGAGCUCAACACAUCGUGGCAGAUUGGCUGUGGCUAGACUGCC [C3A G17U A25G G27U], 0.09; to GGAACAGCUCAACACAGCGUAGCAAAGUGGCUGUCGCUAGACUGCC [C3A G5C G21A G35C], 0.1.
